Laboratory results from the supplement of paper PMC11417369.
The list shows a part of the results.

Tested on: PF3D7_0420300 AP2 domain 1 (GST-tagged)
Experiment: gcPBM binding intensity (ln(normalized median fluorescence intensity)); higher = stronger DNA binding
Procedure, shortened: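 GST-tagged P. falciparum DNA-binding domains produced in E. coli were incubated for 1 h on an Agilent 4 × 180k array of primer-extended double-stranded 36-bp intergenic genomic probes with negative controls. Binding intensity is the highest Masliner-normalised natural-log median intensity across replicate spots of either probe orientation, with bound protein detected by Alexa488 anti-GST antibody at 488 nm.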

| Sequence | gcPBM binding intensity (ln) |
| --- | --- |
| AATAGGAAGACTATTTTGTATTTGATTTTTTATTCC [GTGCAC_negctrl_site453] | 9.34 |
| TAAACATACCTATACACACACACACGCACACGCACA [CACACA_site6372] | 10.3 |
| GTTCCAGGCATTCGTGCGCACAAATAGAAACAATTA [GTGCAC_site9824] | 9.06 |
| TTTCTATATTGGCATACATGCAAGAACGAAAAGATT [TGCATGCA_site117] | 9.02 |
| TAAAAATTGCACAGAAGTACAGTATAAATATATATA [XGTACX_site3421] | 9.19 |
| ATAATATATGAGCAATGTACATATTTCTCATTGCAC [XGTACX_site2253] | 9.22 |
| ATAAAATAAATGAAAAATGTAAAATGAGAAAAAAAT [CACACA_negctrl_site1026] | 9.79 |
| TATATATATATATGGGTGCATTTTTTTGTCCATGTA [GTGCAC_site9868] | 9.25 |
| TATGCTATAATACTCTGTACTTACTAATTTAATAAT [XGTACX_site5926] | 9.31 |
| TACATATTTTTTATATGTACATATTTTTTATGTGTA [XGTACX_site442] | 9.14 |
| TAATAAACAAATTCCAAAATAAATTAAAAGGAAAAT [CACACA_negctrl_site1404] | 9.24 |
| AGGTATATATTACAAGTGCACTGTAAAATTAAAATT | 9.24 |
| TTTTATCTCATTCATCAAAATCACCGGAATCATATA [CACACA_negctrl_site357] | 8.99 |
| ATTTTATCATAATAAAGTACAAAGATGCAAATAATA [XGTACX_site2270] | 9.42 |
| ATTTATTTATATTTAGTGCAATACTATTTTTAAATA [GTGCAC_site9886] | 8.91 |
| GTTTGTATAGGTTCATGTACAAAAAAAAAAAAAAAA [XGTACX_site537] | 8.69 |
| TTTAAAACCCTAAAAAAAAAAAAAAAAAAAAAAAAA [CACACA_negctrl_site1212] | 8.45 |
| ATGCATAAAAGAAATACACACATAAATATGTAAATA [CACACA_site7087] | 9.74 |
| TTAAAACATATTTTGAATTAATATATTTTAATATTA [XGTACX_negctrl_site148] | 8.58 |
| TAGCGTACATTTCATTGTAATCATAAAAAATAAAGA [CACACA_negctrl_site447] | 9.05 |
| ATTCATATGTGACACACACACACACGCATAAAAAAA [CACACA_site7515] | 10.1 |
| ACAAAAATATATATATGTACATATATCATCATAATA [XGTACX_site5850] | 9.37 |

| Sequence | gcPBM binding intensity (ln) |
| --- | --- |
| TTTATTAGAACCGTACGTACATAGTTATTTTTTCAA [XGTACX_site8848] | 9.02 |
| ATAATGTTCCTATGATGTACTTATAATTATCATTTT [XGTACX_site4017] | 9.52 |
| TATTGTTCGTTTAAGGTGCTATTGTTTGCAAAATAT [GTGCAC_site9412] | 9.41 |
| ATTAAAATAATATAAACACACATATACTTTTTTCTA [CACACA_site565] | 9.42 |
| AAGAGGTTATTACATTCACATAACATCAATATACGT [GTGCAC_negctrl_site264] | 9.42 |
| TGGGAAAACCCCAGAAGTACGCTTAATATAAAAAAT [XGTACX_site697] | 8.81 |
| GTAATGTCGTCGTTTTGTACATATTTTTATAAAAAG [XGTACX_site2688] | 9.38 |
| TATTATAAATTAATTTTAAACTTTATTATTATGATA [GTGCAC_negctrl_site389] | 8.92 |
| TATTAGTCGAATGATGTACACACATACAAAACATTT [CACACA_site9331] | 9.52 |
| AAAAAAAAAAAGAACTCACACATAATAATGTATATG [CACACA_site4974] | 9.35 |
| AAAGGAGACAGAATAAGAATAAATATTATACATATA [XGTACX_negctrl_site412] | 9.26 |
| TTAAAATTATATCTGTGTACATAAATTGTGTAACTA [XGTACX_site1966] | 9.1 |
| ATTTAAAAAAAAATGGCACACATTTTAATTTTATGT [CACACA_site1740] | 9.07 |
| TTGTGTCATATATTTTGTAATCAAAATAATTTTATT [TGCATGCA_negctrl_site307] | 9.14 |
| TTTTTGTTTCGTTACGCATGCCAAAAGTAAAAATAT [TGCATGCA_site536] | 9.19 |
| TTTTTAATGATCAGACGTACAGTTATGAAGAAATTT [XGTACX_site6394] | 9.06 |
| ATATATTTAAATAAAAGTACGTAAAGGTATATTTAA [XGTACX_site8088] | 9.39 |
| ATAATAAAAAAAAAATGTACATAAATCTAAAATCCT [XGTACX_site5823] | 9.48 |
| CCTCCCATTTTTACACGTACACATTTAAAATAGACT [XGTACX_site5640] | 9.42 |
| TGAAGAAAATATTAATGTACATATTATATATATATA [XGTACX_site5497] | 9.2 |
| TGTAGTCTGGAGAAAAGTACATAGTATCTGATAACC [XGTACX_site2018] | 9.36 |
| GTGCATATATGATATACACACAATATAATAGTATGT [CACACA_site2460] | 9.45 |

| Sequence | gcPBM binding intensity (ln) |
| --- | --- |
| AAGAGTTTGAAGTTTGCACACTACGTTAAAAATAAA [CACACA_site3939] | 9.16 |
| AATATAATGTAATATACACACATATATTTCTCTTTT [CACACA_site5451] | 9.43 |
| CCACATTTTACAGACACACACAATTTATATTACGGT [CACACA_site1894] | 9.7 |
| AAAAATTTATTTTTAGGTACACAATTGAATTATTTA [XGTACX_site7008] | 8.94 |
| AATTAAAAATATAAATGTACATATATGTAAAACTTT [XGTACX_site123] | 9.35 |
| CCCATGCATTTTTGCACACACATATATATATAAATA [CACACA_site1430] | 9.63 |
| AATATATGAATTAGAAGTACAAATAAATATTTATTT [XGTACX_site2062] | 9.13 |
| TTAATCATAAAAGTCACACATAATAAGAAAAAGCTT [CACACA_site4616] | 9.37 |
| GTATTTTTTTTAATATGTACATATAAAATATTTTAT [XGTACX_site8329] | 9.28 |
| AATACAATTTATAACACACACACAATAATACATATA [CACACA_site1252] | 10.2 |
| ATATAAGTTTATATATGTACATATATATATTATATA [XGTACX_site2068] | 9.13 |
| AATTCATTTAAAAGTTGTACAAGCTTAATAAAAAAA [XGTACX_site6073] | 9.02 |
| ATATACACATAAAGTAGTACACCTGAAATTTTTTTT [XGTACX_site2951] | 9.33 |
| GAGGATATATTATATGTACACACATATATAACGGAT [CACACA_site8361] | 9.73 |
| CTAGCAAATACATACACACACACACCGATACATATA [CACACA_site9164] | 10.2 |
| ACAAGACAGATATATACACACATACATACATACATA [CACACA_site7472] | 9.65 |
| ATATTTATTTATATTACACACATGTGCAATTAAACT [CACACA_site6928] | 9.58 |
| TTTCTTAAAAAAAAAAAAAAAAGAAGATAAATAAAA [CACACA_negctrl_site289] | 8.9 |
| TTTAACTTATTCAATGCACACATTTTAATAAGATAT [CACACA_site1967] | 9.18 |
| ATATAATAGAAGTGTACACACATATTTATGTCTGTA [CACACA_site3121] | 9.48 |
| ATGGATAACAATATGTGTACACATTTATATCTCCAC [XGTACX_site5457] | 9.42 |
| AAGCATGGATATTTTACACACATTTCCACGTAACAA [CACACA_site3141] | 9.56 |

| Sequence | gcPBM binding intensity (ln) |
| --- | --- |
| ATACATTTTTTTTATACGCACACGTCATACTTTTAA [CACACA_site1638] | 9.48 |
| TCCCTAAAAAATGATAAATGGAGACAATTCCGACAA [GTGCAC_negctrl_site209] | 9.15 |
| TTATATATATTTAAATTTTATCTCACATATATATAT [TGCATGCA_negctrl_site275] | 9.12 |
| AATACAATTTCTAGCACACAAAATATTATTATAATT [CACACA_site3223] | 9.39 |
| AAAAAAAAAAAAATCACACACAATATGAATTTATAG [CACACA_site601] | 9.52 |
| TATAGAAGCGTTCACACACACACATACATACCCATA [CACACA_site4915] | 10.3 |
| AAAAAACAATCTCATACACACTAGGGATTAATTATT [CACACA_site5051] | 9.62 |
| TCACATGGAAAAAAGTGTACATAATTATGTATAAAT [XGTACX_site2827] | 9.31 |
| TATAAAAAATAAAAAGTTTAATGAATATTTCTTTTA [TGCATGCA_negctrl_site379] | 8.78 |
| ATATATATAACATATACACACGTTCATATATATATA [CACACA_site4416] | 9.53 |
| TTACAAGTAAAAGGTACACACATTATATATACAAAT [CACACA_site8290] | 9.74 |
| TAATTTTTATTTTATTTTATTTTTTTTTTTTTTATT [CACACA_negctrl_site1671] | 9.19 |
| TATTTGTAAATCGATACACACATATATCTTAATATA [CACACA_site4273] | 9.32 |
| CGGCACGTGATATATACACACATATAGATATATACA [CACACA_site6408] | 9.43 |
| TGGATAATGAATGATGCACACTAAAAATATTCTACA [CACACA_site5912] | 9.34 |
| ATATATACTATATTTTAACACACAAAAAAAAAAAAT [CACACA_site8277] | 9.58 |
| CTTTTTTCAAGACACACACACAAGAAAATATAAATA [CACACA_site7455] | 9.97 |
| CACCCACCCAGACACACACACACAAAAAAAAAAAGA [CACACA_site499] | 10.1 |
| TGTTAATTGAATGCAATCTGAATTTTTTTACATAAT [CACACA_negctrl_site1002] | 9.07 |
| ATCATATGTATGCATACACACAAAAAGTTATTTATA [CACACA_site6325] | 9.37 |
| GAAAATCAGTTAAACACACACATAAAAAAAAAAAAA [CACACA_site2875] | 9.64 |
